Test results from the supplement of paper PMC11417369.
± gives the standard deviation of the averaged measurements. This is one part of the list.

Each sequence was assayed on PfAP2-LT AP2 domain (GST-tagged) (assay: gcPBM binding intensity (ln(normalized median fluorescence intensity)); higher = stronger DNA binding).
Procedure, shortened: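 Binding intensity values are the highest Masliner-normalised natural-log median intensity among replicate spots of either probe orientation. The binding step lasted 1 h in 1× PBS with 1% milk, 0.2 mg/ml BSA, 0.5% salmon testes DNA and 0.03% Triton X-100, using GST-tagged P. falciparum DNA-binding domains expressed in E. coli on an Agilent 4 × 180k array of primer-extended double-stranded 36-bp intergenic genomic probes plus negative controls. Alexa488 anti-GST antibody and a 488 nm scan detected bound protein.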

Row | Sequence | gcPBM binding intensity (ln)
1 | AATGAAGACTTTTTTACACACTTCATATATTATATA [CACACA_site2034] | 8.9 ± 0.39
2 | ATATTATATAACTTTTGTACGAACTATTTTATATAT [XGTACX_site6] | 9.13 ± 0.5
3 | ACCTATGTATATTATACACACTCCAAACTATTCTTT [CACACA_site6939] | 9.07 ± 0.46
4 | TAAAGTGTCAAATTCACACACATATATATATATATA [CACACA_site1380] | 9.88 ± 0.12
5 | TAAATTAGAATAAATACACACAAATTAGAATTCTAT [CACACA_site7781] | 8.89 ± 0.42
6 | TTTTTTTTTGTTAGTTGTACGTTAAATGAATTTACT [XGTACX_site7675] | 8.67 ± 0.57
7 | AATGATTTTAAAAAATGTACTTTATAAACAAAATTA [XGTACX_site3803] | 8.32 ± 0.44
8 | GTATAATTGGAAATTACACACCTTATAATGTAACAT [CACACA_site6091] | 8.88 ± 0.36
9 | CATGAATATTTTAATGTGCACATTTATCATTATATG | 9.05 ± 0.47
10 | ATATTTTCAGTTCTCCATTATGTTCCCATTATTTTT [CACACA_negctrl_site990] | 9.09 ± 0.43
11 | CCAAACTAAATGTACACACATACATAAATATAAATA [CACACA_site1141] | 9.33 ± 0.48
12 | ATGTAATAAATATACACACACAAATATATATATATA [CACACA_site2395] | 9.79 ± 0.26
13 | TTTTTTTTTTAGAGTACACACTTTTTTACATTTATG [CACACA_site5990] | 8.77 ± 0.47
14 | ATTACAAATATAATATGTACTTAAATATAATTAAAA [XGTACX_site7038] | 8.42 ± 0.4
15 | TCTTGATCTTATATATATCTACAATATTTTATACAT [TGCATGCA_negctrl_site569] | 9.04 ± 0.42
16 | ATTACTAAAACAAAATGTACATATGATTTAAGAAAA [XGTACX_site5992] | 8.64 ± 0.36
17 | CAAAAAAAATTATACACACACACACCCATATATATA [CACACA_site1044] | 10.04 ± 0.099
18 | TACTATATATTATATAGTACATAAGATATACAACAT [XGTACX_site2929] | 8.72 ± 0.31
19 | AAGAAAATTAACCCATGTACTTATGTAGATAGCAAG [XGTACX_site1049] | 8.95 ± 0.47
20 | CAATATTATAGATATACACACATAATGTGTAAAAAC [CACACA_site6631] | 9.25 ± 0.44
21 | TAAAACTTAATATAAACACACAAAAATTAATAAATA [CACACA_site4370] | 8.74 ± 0.46
22 | ATATATATATATATTGCACACATATAAATATATATA [CACACA_site8167] | 9 ± 0.34

Row | Sequence | gcPBM binding intensity (ln)
23 | GAAAAATTTAATTATTGTACGTTTCATCTATATTTA [XGTACX_site414] | 8.72 ± 0.43
24 | TTTTTGTTTTTTTTGTGTACTTATCAAATATATATA [XGTACX_site7273] | 8.71 ± 0.44
25 | AAAAAAATAAATAAATGTACACATATATATATATAT [XGTACX_site4350] | 9.54 ± 0.38
26 | ATCATTTATATTTTATGTACATATATAATTATATTT [XGTACX_site2129] | 8.99 ± 0.44
27 | AGTGAAATTTTAGTCACACAGTTTTATCTTTAAGAA [CACACA_site5202] | 8.5 ± 0.51
28 | TTATGTCTAATGAAATGTACATGAATAAATTAAAGT [XGTACX_site8138] | 8.88 ± 0.49
29 | TAGAGGAATATAATATGTACATAATATAATGTATAT [XGTACX_site2838] | 8.87 ± 0.51
30 | AATTATATAAGCCACGCATGTGTGCATAAAAATACA [TGCATGCA_site114] | 9.07 ± 0.3
31 | CACGTGAAAATACAAGCATGCAAGCTTTTTTTTTCT [TGCATGCA_site642] | 8.86 ± 0.22
32 | AATTTTCAATAGTATACACACAATTCTATAAATATA [CACACA_site6650] | 8.64 ± 0.42
33 | AATGAGAATTTTATTACACACTTTAATATATTTTCA [CACACA_site784] | 8.7 ± 0.44
34 | AATTTTTTTATAGCACGTACAAAAATACAAAATACA [XGTACX_site1569] | 8.61 ± 0.33
35 | AAAAAAAAAAAGAAGGGTACATATTATATATAATAT [XGTACX_site6204] | 8.71 ± 0.45
36 | TATATATAAACATAATGTACATATAATAAGTAATAT [XGTACX_site497] | 8.95 ± 0.4
37 | AGCCCAAAAAAGTAGACATGCAAAAACTTTACAACT [TGCATGCA_site550] | 8.93 ± 0.4
38 | GATCATTCTAAATATAAACACACATAAATATATACA [CACACA_site9108] | 8.89 ± 0.43
39 | ATAATATAATAATATTGTACATGGTCAAATATGAAA [XGTACX_site8390] | 8.77 ± 0.4
40 | GTTTATATATTATAAAGTACATATGAATTTAATAAT [XGTACX_site3601] | 8.57 ± 0.42
41 | AAAAAATAAATAAACATAAATAAATAAATAAATATA [XGTACX_negctrl_site340] | 8.71 ± 0.49
42 | ATTTCAAAATATAGCTGTACAAAAAATGTAGATATA [XGTACX_site5843] | 8.9 ± 0.38
43 | CTTAAAAAAATATATTGTACATATATATATACAACT [XGTACX_site1281] | 8.55 ± 0.43
44 | TATATTCCCATATAACGTACATATGAGACACCAACT [XGTACX_site8099] | 8.79 ± 0.42
